The source of these data is paper PMC9388138, “Engineered IL13 variants direct specificity of IL13Rα2-targeted CAR T cell therapy” (Proceedings of the National Academy of Sciences of the …, 2022).

Experiment [1] concerns the target T1, Biotinylated IL13Rα2 ectodomain (human, UniProt Q14627 27-343, biotin on the biotin acceptor peptide (coexpressed with BirA ligase)).
T1 construct: interleukin-13 receptor subunit alpha-2, ectodomain; also called recombinant IL13Rα2; source: baculovirus (pAcGP67-A), coexpressed with BirA ligase and excess biotin
T1 sequence (looked up): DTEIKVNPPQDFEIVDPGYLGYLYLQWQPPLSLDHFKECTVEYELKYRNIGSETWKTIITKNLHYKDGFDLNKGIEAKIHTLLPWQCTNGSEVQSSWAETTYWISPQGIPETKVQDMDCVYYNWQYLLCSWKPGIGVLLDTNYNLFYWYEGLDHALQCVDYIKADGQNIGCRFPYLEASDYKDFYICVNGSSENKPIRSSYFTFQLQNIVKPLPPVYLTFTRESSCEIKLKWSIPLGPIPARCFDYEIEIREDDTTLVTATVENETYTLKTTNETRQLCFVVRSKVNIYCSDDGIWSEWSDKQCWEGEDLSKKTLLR
The experiment is described as follows: SPR; Biacore T100, SA chip; biotinylated IL13Rα1/IL13Rα2 captured at 50 to 100 RU; threefold serial dilutions of IL13 agonists in HBS-P with 0.1% BSA, 30 µL/min; 1:1 Langmuir model. To be noted: both partners purified. A general note: SPR reads the build-up and loss of mass on a sensor chip optically.

Experiment [2] addresses T2, Biotinylated IL13Rα1 ectodomain (human, UniProt P78552 22-343, biotin on the biotin acceptor peptide (coexpressed with BirA ligase)).
T2 construct: interleukin-13 receptor subunit alpha-1, ectodomain; also called recombinant IL13Rα1; source: baculovirus (pAcGP67-A), coexpressed with BirA ligase and excess biotin
T2 sequence (looked up): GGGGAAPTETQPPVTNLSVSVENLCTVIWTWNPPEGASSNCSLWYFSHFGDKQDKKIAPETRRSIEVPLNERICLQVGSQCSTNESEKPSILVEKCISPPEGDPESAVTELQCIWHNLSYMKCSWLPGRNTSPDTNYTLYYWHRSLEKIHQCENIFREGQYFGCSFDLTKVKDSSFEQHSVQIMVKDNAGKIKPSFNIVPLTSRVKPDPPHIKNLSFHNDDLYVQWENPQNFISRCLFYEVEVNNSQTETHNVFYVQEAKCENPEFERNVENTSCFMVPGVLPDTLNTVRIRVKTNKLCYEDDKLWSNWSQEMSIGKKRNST
The experiment is described as above. The settings on record: both partners purified.

B1: Human IL13 wild type, soluble recombinant (ligand)
chain: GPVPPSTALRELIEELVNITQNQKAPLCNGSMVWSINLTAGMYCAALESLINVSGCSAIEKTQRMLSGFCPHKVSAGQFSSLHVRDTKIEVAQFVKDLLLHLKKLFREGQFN
As usually defined, the Kd is the concentration at which binding is half-saturated. Read a high Kd as weaker binding. For orientation: koff means a measure of how fast the partners let go of each other. Read a high koff as fast dissociation. One may read the kon as a measure of how fast the partners come together. In the case of B1, in experiment [1], the affinity, expressed as Kd, was 0.001 nM; the koff is 8.4e-05 s⁻¹; the kon came to 5e+07 M⁻¹ s⁻¹. In addition, in experiment [2], binding was characterised by a dissociation constant (Kd) of 4.38 nM, the off-rate constant (koff) amounted to 0.022 s⁻¹ and the kon worked out at 5.21e+06 M⁻¹ s⁻¹.
